Measured values taken from publication PMC6212790.
Some of the results follow. At the low end of the ranking, values are background and their order means little.

biological target: T1, GST-Rok (full length) (UniProt O34857); test: protein binding microarray; conditions: Rok is a gene silencer of Bacillus subtilis; high values mean tight binding; most listed sequences are background and not binding sites; double strand, one strand shown;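 also: rank score from −0.5 (least bound) to 0.5 (best bound)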
T1 sequence: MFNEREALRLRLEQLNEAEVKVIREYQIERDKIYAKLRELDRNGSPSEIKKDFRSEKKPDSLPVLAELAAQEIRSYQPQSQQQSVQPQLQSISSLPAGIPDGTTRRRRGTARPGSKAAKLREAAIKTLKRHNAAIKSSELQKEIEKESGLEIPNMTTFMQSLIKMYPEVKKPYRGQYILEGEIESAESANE

Row | Sequence | binding signal [E-score]
1 | ACAAACAC | 0.159
2 | CGATCACA | -0.059
3 | ACTTAGCT | 0.0091
4 | GTCCATAA | 0.112
5 | AACTGCAC | 0.109
6 | CATTTGCC | -0.136
7 | ACTCCACC | -0.123
8 | GCCTATAA | 0.158
9 | CAAAACGC | -0.238
10 | AGGCGAAA | -0.322
11 | TCTTGGAA | -0.123
12 | ACCTGTCC | -0.135
13 | CGATTGCA | 0.00566
14 | AGTGATCC | -0.173
15 | GACTAAGC | -0.101
16 | CGAGTCTA | 0.0197
17 | ATCCAACC | -0.142
18 | ACTTAGTA | 0.252
19 | ATCAATGA | 0.0966
20 | CATTTCAC | 0.0165
21 | GCCGCGCA | -0.193
22 | GCTGCCTA | 0.0322

Row | Sequence | binding signal [E-score]
23 | CCACATAG | 0.15
24 | ATAGGCCA | -0.0478
25 | GCACTCAC | -0.0539
26 | AGTACATC | 0.215
27 | ACGTCCTC | -0.22
28 | AGAAACGA | 0.0933
29 | TCAGACGA | -0.112
30 | CGCGAGCC | -0.174
31 | AAGTGTCT | -0.075
32 | AGGACTCG | -0.144
33 | CGATTAGA | 0.132
34 | GCCACCTA | -0.101
35 | GCAGAAGA | -0.0641
36 | AGTGGAAT | 0.04
37 | GGAGTTGA | -0.142
38 | CTATCAGC | 0.119
39 | AAAAAAGT | 0.00546
40 | GATGGTGC | -0.158
41 | AACAGGTA | 0.179
42 | GTCCTCAC | -0.0182
43 | ACGTGCCG | -0.0818
44 | GTAAGGTA | 0.18

Row | Sequence | binding signal [E-score]
45 | CGGAGGAG | -0.327
46 | ATCTCCAA | 0.128
47 | GACGTCCC | -0.304
48 | ATATTTCC | 0.213
49 | GGTTCGTA | -0.177
50 | AGTGACGA | -0.0568
51 | CCGAGCCG | -0.35
52 | AAAGGGTA | -0.00849
53 | AAGTCCTC | -0.0846
54 | CGCCAAAA | -0.166
55 | AACGTGAA | 0.0673
56 | CCCCTTGC | -0.406
57 | CTTCTGCA | 0.0619
58 | CACCCGTC | -0.232
59 | CGCGTACG | -0.0735
60 | GGTGAACC | -0.216
61 | CAGCACAC | -0.204
62 | AATTACAG | 0.324
63 | GACCTGCA | -0.184
64 | ACTGTAAG | -0.0329
65 | ATCACCCG | 0.00491
66 | CCAGGAGA | -0.149

Row | Sequence | binding signal [E-score]
67 | CCCGTGTA | -0.0222
68 | AAGCGGCT | 0.0263
69 | GTATTTAA | 0.285
70 | AGAATCAA | 0.138
71 | AGAGCTCC | -0.195
72 | ATCCTATA | 0.271
73 | GCTAAGAC | -0.105
74 | CCAAGGAG | -0.331
75 | CACCGGGC | -0.327
76 | AGAAAGAG | -0.197
77 | ACCTGGCT | -0.172
78 | GGACAACC | -0.173
79 | CTGAGAGA | 0.0113
80 | ACGGGTAT | -0.0718
81 | ACACTAGG | -0.0519
82 | GGAGAGAC | -0.158
83 | CACTACGA | 0.174
84 | CGCGGAAG | -0.0367
85 | ACATACGT | 0.169
86 | CTGGTCGA | -0.0289
